Consider 27 compounds from the antibiotic and cytotoxicity screens of Wong et al. (2023).

For one assay, the system named is HSkMC. Description: cytotoxicity call (relative viability < 0.9). As to conditions: 10 µM.
The next assay has as its system HepG2. Description: cytotoxicity call (relative viability < 0.9). As to conditions: 10 µM.
Another assay deals with S. aureus RN4220. Description: growth inhibition call (relative growth <= 0.2). The conditions noted are these: 50 µM.

Some of the results follow.

For the compound `COc1ccccc1C(=O)Nc1ccc2c(c1)C(=O)N(C)[C@H]1CC[C@@H](CC(=O)NCCc3ccncc3)O[C@@H]1CO2`, the cytotoxicity call with HSkMC and in the assay on HepG2 was “inactive” throughout. Also, in the assay on S. aureus RN4220, the growth inhibition call is “inactive”.

As for `COc1ccc(C=CC(=O)c2ccc(O)cc2O)cc1`, the cytotoxicity call in the assay with HSkMC and with HepG2 was “inactive” in each case. Besides, the growth inhibition call with S. aureus RN4220 is “inactive”.

Regarding `COc1ccc2c(c1)C(=O)C(=O)N2`, the cytotoxicity call with HSkMC and with HepG2 was “inactive” throughout. In addition, the growth inhibition call in the assay with S. aureus RN4220 was “inactive”.

Consider `Cc1cc(C)n(CCNC(=O)[C@H]2CCCN(c3cccc4c3C(=O)N(Cc3ccc5c(c3)OCO5)C4=O)C2)n1`, for which the cytotoxicity call with HSkMC and with HepG2 was “inactive” in each case. Also, the growth inhibition call with S. aureus RN4220 is “inactive”.

Take `COCC(=O)Nc1ccc2c(c1)C(=O)N(C)C[C@@H](OC)[C@H](C)CN(C(=O)Cc1ccccn1)[C@@H](C)CO2`: the cytotoxicity call with HSkMC and in the assay on HepG2 was “inactive” throughout. The growth inhibition call with S. aureus RN4220 is “inactive”.

Take `Cc1ccc(C(C)C)cc2c(C)ccc1-2`: the cytotoxicity call with HSkMC and with HepG2 was “inactive” in each case. Also, the growth inhibition call in the assay on S. aureus RN4220 is “inactive”.

For the compound `CCCN1C[C@@H](C)[C@@H](OC)CN(C)C(=O)c2cc(NS(=O)(=O)c3cn(C)cn3)ccc2OC[C@@H]1C`, the cytotoxicity call in the assay on HSkMC and in the assay with HepG2 was “inactive” in each case. The growth inhibition call in the assay on S. aureus RN4220 is “inactive”.

`Cn1cnnc1Sc1c([N+](=O)[O-])ncn1C`: the cytotoxicity call in the assay with HSkMC and in the assay on HepG2 was “inactive” in each case. Moreover, the growth inhibition call in the assay on S. aureus RN4220 is “inactive”.

Consider `Cc1ccc(S(=O)(=O)N(C)C[C@H]2OCCCC[C@@H](C)Oc3ccc(NS(=O)(=O)c4ccc(Cl)cc4)cc3C(=O)N([C@@H](C)CO)C[C@@H]2C)cc1`, for which the cytotoxicity call in the assay with HSkMC and in the assay on HepG2 was “inactive” throughout. Besides, the growth inhibition call with S. aureus RN4220 was “inactive”.

Turning to `O=C(Nc1ccc2c(c1)[C@H]1C[C@H](CC(=O)N3CCc4ccccc4C3)O[C@@H](CO)[C@H]1O2)C1CCOCC1`, the cytotoxicity call in the assay on HSkMC and in the assay on HepG2 was “inactive” each time. In the assay on S. aureus RN4220, the growth inhibition call was “inactive”.

For `C[C@@H]1CN([C@@H](C)CO)C(=O)c2cc(NC(=O)Nc3cccc4ccccc34)ccc2O[C@@H]1CN(C)Cc1ccc2c(c1)OCO2`, the cytotoxicity call in the assay with HSkMC is “inactive”. Further, the cytotoxicity call with HepG2 is “active”. Moreover, the growth inhibition call in the assay on S. aureus RN4220 is “inactive”.

Take `C[C@@H]1CCCCO[C@@H](CN(C)Cc2ccncc2)[C@H](C)CN([C@@H](C)CO)C(=O)c2cc(NC(=O)Nc3ccc4c(c3)OCO4)ccc2O1`: the cytotoxicity call in the assay with HSkMC and in the assay on HepG2 was “inactive” in each case. In the assay on S. aureus RN4220, the growth inhibition call is “inactive”.

As to `C[C@H](CO)N1C[C@H](C)[C@H](CN(C)Cc2ccc(-c3ccccc3)cc2)Oc2ccc(NC(=O)Cc3cn(C)c4ccccc34)cc2C1=O`, the cytotoxicity call in the assay with HSkMC and with HepG2 was “active” in each case. Also, in the assay on S. aureus RN4220, the growth inhibition call was “inactive”.

Turning to `C[C@@H]1CCCCO[C@@H](CN(C)CC2CCCCC2)[C@H](C)CN([C@@H](C)CO)C(=O)c2cc(NC(=O)Nc3ccc(F)cc3)ccc2O1`, the cytotoxicity call in the assay with HSkMC was “inactive”. In addition, in the assay with HepG2, the cytotoxicity call was “active”. Further, in the assay on S. aureus RN4220, the growth inhibition call was “inactive”.

`COc1ccc(NC(=O)Nc2ccc3c(c2)[C@@H]2C[C@H](CC(=O)NCc4ccc(-c5ccccc5)cc4)O[C@@H](CO)[C@@H]2O3)cc1`: the cytotoxicity call with HSkMC and in the assay with HepG2 was “inactive” throughout. The growth inhibition call with S. aureus RN4220 was “inactive”.

With `Cc1noc(C)c1S(=O)(=O)Nc1ccc2c(c1)CC(=O)N([C@H](C)CO)C[C@H](C)[C@@H](CN(C)S(=O)(=O)c1ccccc1)O2`, the cytotoxicity call in the assay on HSkMC and with HepG2 was “inactive” throughout. For the same compound, the growth inhibition call with S. aureus RN4220 is “inactive”.

As to `CC(=O)N1CCN(C(=O)c2ccc(NCc3ccccc3Cl)c(S(=O)(=O)Nc3cccc(C(F)(F)F)c3)c2)CC1`, the cytotoxicity call in the assay with HSkMC and in the assay on HepG2 was “inactive” each time. In addition, the growth inhibition call in the assay on S. aureus RN4220 was “inactive”.

Turning to `C[C@H](CO)N1C[C@H](C)[C@H](CN(C)C(=O)Nc2ccccc2)Oc2c(NC(=O)c3cnccn3)cccc2C1=O`, the cytotoxicity call with HSkMC and in the assay on HepG2 was “inactive” in each case. For the same compound, in the assay with S. aureus RN4220, the growth inhibition call is “inactive”.

`CN1C[C@@H]2CN(C(=O)CO)C[C@@H]2c2ccccc21`: the cytotoxicity call in the assay on HSkMC and in the assay on HepG2 was “inactive” throughout. The growth inhibition call with S. aureus RN4220 is “inactive”.

For the compound `C[C@H](CO)N1C[C@H](C)[C@@H](CN(C)S(=O)(=O)c2cn(C)cn2)Oc2ccc(NC(=O)CCN3CCOCC3)cc2CC1=O`, the cytotoxicity call with HSkMC and with HepG2 was “inactive” each time. The growth inhibition call in the assay with S. aureus RN4220 was “inactive”.

As to `Cc1noc(C)c1S(=O)(=O)N(C)C[C@H]1OCCCC[C@@H](C)Oc2ccc(NC(=O)Nc3cccc4ccccc34)cc2C(=O)N([C@@H](C)CO)C[C@@H]1C`, the cytotoxicity call in the assay on HSkMC and with HepG2 was “inactive” throughout. Moreover, the growth inhibition call in the assay with S. aureus RN4220 is “inactive”.

For `CCCC(CCC)C(=O)[O-].[Na+]`, the cytotoxicity call in the assay on HSkMC and in the assay on HepG2 was “inactive” throughout. The growth inhibition call in the assay with S. aureus RN4220 is “inactive”.

Consider `Cc1ccc(S(=O)(=O)Nc2ccc3c(c2)CC(=O)N([C@@H](C)CO)C[C@@H](C)[C@@H](CN(C)S(=O)(=O)c2cccs2)O3)cc1`, for which the cytotoxicity call in the assay with HSkMC and with HepG2 was “inactive” in each case. In the assay on S. aureus RN4220, the growth inhibition call was “inactive”.

As to `O=C(O)C(S)C(S)C(=O)O` (stereo unspecified), the cytotoxicity call in the assay with HSkMC and in the assay on HepG2 was “inactive” throughout. In addition, in the assay with S. aureus RN4220, the growth inhibition call was “inactive”.

Regarding `Cc1noc(C)c1NC(=O)N[C@H]1CC[C@@H](CC(=O)N2CCN(C)CC2)O[C@H]1CO`, the cytotoxicity call in the assay on HSkMC and in the assay on HepG2 was “inactive” throughout. The growth inhibition call in the assay with S. aureus RN4220 is “inactive”.

As for `C[C@@H]1CN([C@@H](C)CO)C(=O)c2cccc(NC(=O)Nc3ccc(F)cc3)c2O[C@@H]1CN(C)S(C)(=O)=O`, the cytotoxicity call in the assay on HSkMC and in the assay with HepG2 was “inactive” in each case. Besides, in the assay with S. aureus RN4220, the growth inhibition call is “inactive”.

Consider `CCNC(=O)C[C@@H]1CC[C@@H]2[C@H](COC[C@H](O)CN2C(=O)Nc2c(C)noc2C)O1`, for which the cytotoxicity call in the assay on HSkMC (human skeletal muscle cells) and in the assay with HepG2 was “inactive” each time. Also, the growth inhibition call in the assay with S. aureus RN4220 was “inactive”.
